Laboratory results published in patent publication US11247989B2 (priority 2017, dated 2022).

Tested on: MYC
Experiment: cells
Conditions: Homo sapiens, MV4-11, 4 h, read-out: Myc IC50 (μM)

Structure (SMILES)	IC50
CNC(=O)N1CCc2c(c(-n3c(C)cc4cc(-c5cnn(C)c5)ncc43)nn2C2CCOCC2)C1 [Example 40, N-methyl-3-(2-methyl-5-(1-methyl-1H-pyrazol-4-yl)-1H-pyrrolo[2,3-c]pyridin-1-yl)-1-(tetrahydro-2H-pyran-4-yl)-6,7-dihydro-1H-pyrazolo[4,3-c]pyridine-5(4H)-carboxamide]	0.727 µM
CC(=O)N1CCc2c(c(-c3cccc4nc(-c5cccnc5)oc34)nn2C2CCOCC2)C1 [Example 158]	5.32 µM
CC(=O)N1CCc2c(c(-c3cccc4c3CC(=O)N(c3cnn(C)c3)C4)nn2C2CCOCC2)C1 [Example 101]	0.33 µM
CC(=O)N1CCc2c(c(-c3cccc4cc(N5CCC(C(F)F)C5)ncc34)nn2C2CCOCC2)C1 (stereo not drawn) [Example 117]	1.51 µM
CC(=O)N1CCc2c(c(-c3cccc4cc(-c5cnn(C)c5C)ncc34)nn2C2CCOCC2)C1 [Example 90]	0.0168 µM
CC(=O)N1CCc2c(c(-c3cccc4cc(N5CCC[C@@H]5C)ncc34)nn2C2CCOCC2)C1 [Example 114]	1.15 µM
COc1ccc(-c2cn3cccc(-c4nn(C5CCOCC5)c5c4CN(C(C)=O)CC5)c3n2)cc1F [Example 152]	> 10 µM
CC(=O)N1CCc2c(c(-c3c(C)ccc4cc(-c5cnn(C)c5)ncc34)nn2C2CCOCC2)C1 [Example 84]	8.87 µM
COc1ccc(N2Cc3c(cccc3-c3nn(C4CCOCC4)c4c3CN(C(C)=O)CC4)C2=O)cc1 [Example 145]	4.42 µM
CC(=O)N1CCc2c(c(-c3cccc4cc(-c5cnn(C)c5)ccc34)nn2[C@H]2CCOC2)C1 [Example 36, (S)-1-(3-(6-(1-methyl-1H-pyrazol-4-yl)naphthalen-1-yl)-1-(tetrahydrofuran-3-yl)-6,7-dihydro-1H-pyrazolo[4,3-c]pyridin-5(4H)-yl)ethanone]	0.0465 µM
COc1ccc(-c2cn3c(-c4nn(C5CCOCC5)c5c4CN(C(C)=O)CC5)cccc3n2)cc1 [Example 157]	1.04 µM
CC(=O)N1CCc2c(c(-c3cccc4cc(N5CCCCC5)ncc34)nn2C2CCOCC2)C1 [Example 128]	0.28 µM
CNC(=O)N1CCc2c(c(-c3cncc4cc(-c5cnn(C)c5)c(C(F)F)cc34)nn2C2CCOCC2)C1 [Example 25, 3-(6-(difluoromethyl)-7-(1-methyl-1H-pyrazol-4-yl)isoquinolin-4-yl)-N-methyl-1-(tetrahydro-2H-pyran-4-yl)-6,7-dihydro-1H-pyrazolo[4,3-c]pyridine-5(4H)-carboxamide]	0.00596 µM
CC(=O)N1CCc2c(c(-c3cccc4cc(N5CCC(C#N)C5)ncc34)nn2C2CCOCC2)C1 (stereo not drawn) [Example 126]	0.374 µM
CNC(=O)N1CCc2c(c(-c3cccc4c3CCN(c3cnn(C)c3)C4)nn2C2CCOCC2)C1 [Example 39, N-methyl-3-(2-(1-methyl-1H-pyrazol-4-yl)-1,2,3,4-tetrahydroisoquinolin-5-yl)-1-(tetrahydro-2H-pyran-4-yl)-6,7-dihydro-1H-pyrazolo[4,3-c]pyridine-5(4H)-carboxamide]	0.617 µM
CC(=O)N1CCc2c(c(-c3cccc4cc(N5CCOCC5)ncc34)nn2C2CCOCC2)C1 [Example 130]	0.285 µM
CNC(=O)[C@@H]1CCN(c2cc3cccc(-c4nn(C5CCOCC5)c5c4CN(C(C)=O)CC5)c3cn2)C1 (single isomer, unassigned) [Example 15]	0.054 µM
CNC(=O)[C@H]1CCN(c2cc3cccc(-c4nn(C5CCOCC5)c5c4CN(C(C)=O)CC5)c3cn2)C1 (single isomer, unassigned) [Example 14]	0.203 µM
